For test [1], the system named is NCI-H460 non-small cell lung cancer cells.
Test [2] relates to T-47D breast cancer cells. The experiment in a line: cells. Conditions: Homo sapiens, T47D; for activity at 100 µM: read-out: Percent Growth, log10 conc -4.0; for activity at 10 µM: read-out: Percent Growth, log10 conc -5.0; for activity at 1 µM: read-out: Percent Growth, log10 conc -6.0; for activity at 0.1 µM: read-out: Percent Growth, log10 conc -7.0; for activity at 0.01 µM: read-out: Percent Growth, log10 conc -8.0.

For test [3], the system named is NCI-H460 non-small cell lung cancer cells. The experiment in a line: cells. Conditions: Homo sapiens.
Test [4] has as its system T-47D breast cancer cells.

Molecules are shown by their SMILES. Where “and” joins values, the source holds several entries; their conditions need not be identical. Equal entries are not always repeated. Where two headings read alike, the source gives them in different places.

On to `COc1cc2c(c(OC)c1OC)-c1ccc(C(C)=O)cc1C(NC(C)=O)CC2` (centres unmarked), for which the “Percent Growth” value in test [1] (log10 conc -7.0, 0.1 µM) came to 16%; in test [4] (log10 conc -7.0, 0.1 µM), 81%; in test [4] (log10 conc -8.0, 0.01 µM) it was 47%. Also, the activity at 100 µM in test [2] is 72%; in test [3] (NCI-H460, read-out: Percent Growth, log10 conc -4.0) it was 0%. For the same compound, the activity at 10 µM came to 70% in test [2] and 2% in test [3] (NCI-H460, read-out: Percent Growth, log10 conc -5.0). The activity at 1 µM in test [2] is 62%. The activity at 0.1 µM in test [2] stood at 65%. Besides, in test [2], the activity at 0.01 µM came to 60%. Further, the activity at 0.001 µM in test [2] (read-out: Percent Growth, log10 conc -9.0) came out at 54%; in test [3] (NCI-H460, read-out: Percent Growth, log10 conc -9.0) it was 83%. The activity at 0.0001 µM was found to be 96% in test [2] (read-out: Percent Growth, log10 conc -10.0) and 103% in test [3] (NCI-H460, read-out: Percent Growth, log10 conc -10.0).

Regarding `CCCC(=O)NC1CCc2cc(OC)c(OC)c(OC)c2-c2ccc(C(C)=O)cc21` (centres unmarked), the “Percent Growth” value in test [1] (log10 conc -4.0, 100 µM) is 0% and 1%; in test [1] (log10 conc -5.0, 10 µM), 2% and 0%; in test [1] (log10 conc -6.0, 1 µM), 1% and 0%; in test [1] (log10 conc -7.0, 0.1 µM), -3% and 2%; in test [4] (log10 conc -6.0, 1 µM), 75%; in test [4] (log10 conc -7.0, 0.1 µM), 82%. Besides, in test [2] (read-out: LC50), the CC50 was greater than 100 µM. For the same compound, in test [2], the activity at 100 µM was 69% and 61%. Moreover, the activity at 10 µM in test [2] was 65% and 79%. For the same compound, the activity at 1 µM in test [2] is 80%. Besides, the activity at 0.1 µM in test [2] came to 73%. The activity at 0.01 µM in test [2] is 36%.

The values above are taken from patent US5760092A, “Allocolchinones and uses thereof” (Brandeis University, priority 1996, dated 1998).
